In the RNAGym collection of RNA variant scans (doi:10.7554/elife.90254) one finds self-cleavage data, which are given here for 84 variants.

B1: OR4K15 (parent)
chain: GUUAACGGUCAUAGGCCAUGGAAACUAGGAGCACCAUUUCGCUGCCAGUGAAGAAAUGAACAAAGAAAAUCUGGGCCAGGCAGGCAUCAAAAGAAAUAGUCUUGCGCUCAACCAGAAAGUCUGUAAUCAUUUUAAGGGUA

Read counts are not given, so values of variants with three or more changes are uncertain.

The data set covers variants of B1. Briefly: self-cleavage, relative activity (ratio to wild type); higher = more cleavage; in vitro, sequencing; the parent is a self-cleaving ribozyme.
As to A36G A51G A82G U108C, the self-cleavage amounted to 0.05. In the case of A33G A66U U108C A116U U120C A129U, the self-cleavage is 0. The same measure for A33G A82G G99A: 0.05; for A36U A68U U122C: 1.99; for A36G G44A A94U: 2.12.

On to A36G A60G A95G, for which the self-cleavage came to 1.58. The value for A36U A78U U103C U132C was 0.16. With A36C A54G A55G, the self-cleavage came to 1.18. The value for A36U A92G A110G A129G was 0.07. For the variant A33U A59G A60G A69G A86G, the self-cleavage came to 0.71.

Regarding A36G A89G A129G A135G, the self-cleavage stood at 1.17. The same measure for A33G A36C A89G: 0.3; for A36G A63G U122C A126G U139C: 0.33. The same measure for A33G U37C A54U U100C: 1.97; for C34U A82G A94G: 0.28; for A33G A91G U120C: 0.29. Take A33G A68G U122A: the self-cleavage came to 0.26.

For the variant A36U U37C A117U, the self-cleavage came to 0.76. The same measure for A36G A62G C105U: 0.13; for C32U U37C A52U: 1.54. On to A33G A94G U124A, for which the self-cleavage turned out to be 0.49. The same measure for A33U A96G A126G: 2.39; for A33G U37C U57G U120G: 2.02; for A33G U39C A52G A68G A98U U124C: 1.74. As to A36U U43A A135G, the self-cleavage came to 1.93.

In the case of A33G U38C A54U C109A, the self-cleavage was 0.34.

On to A33G A60G A68G, for which the self-cleavage amounted to 0.54. The value for A33U A47G G79A U120C was 0.1. The same measure for A33G U72G A78C C88G A89U: 0.08; for A36G A47C A55G: 0.96. For the variant A33U A47G G74U U102C, the self-cleavage was 0.11. The value for A36G U39C A125G was 0.95; that for A33U U39C G41U A96G U103A U132C was 0.57; that for A33U A86G U102C U103C was 0.28. The same measure for C32U C40U A67G A118G U131C: 0.72; for C34A A54G U70C A78U A126G A129G A135U: 0.05. The same measure for A36G U38C A98G U108C: 0.04; for A33C U70C A126G: 0.62; for A36G A52G A54G U103C G106A U133C: 0.01. Turning to U37A A55G U72A, the self-cleavage was 0.25.

As for A33G U49C A69G A114G, the self-cleavage came to 0.15. The same measure for A33G A51U A129U: 0.21; for A33U A66G A92G A94G A117G U120C: 0.68; for A33G A116G A135G: 0.13. On to A33U G53U C81U, for which the self-cleavage is 0.44.

For A33U A56G A90G A92G, the self-cleavage was found to be 1.06.

Regarding A33G A62G C112U A116G, the self-cleavage worked out at 0.01. The same measure for A33G U72C A96G U100C: 0.26; for C34U A91G A116G U122A A125G U132A: 0.18; for A36U A60G A69U G74A A82G A89G: 0.08.

As to A36U U38C G41U A96G A110G C128U, the self-cleavage was 0.28. Take A33G U37C A94G A129G: the self-cleavage was found to be 0.6.

Consider U37A A52G A118G, for which the self-cleavage came out at 1.68. Regarding A36G A62U A90G A114G, the self-cleavage was 0.34. The value for A36U G74A A95G was 0.23. The same measure for A33G A69G A125U: 0.48. As for A33G A62U A86U U102C A111G, the self-cleavage turned out to be 0.01. In the case of A33G A62G A86G U102G U130C U132A, the self-cleavage came to 0.04. Turning to A36G U87C A116G, the self-cleavage was determined as 1.43.

Regarding A36U U103C A111G, the self-cleavage worked out at 0. The same measure for A36U U43C A89G C112U A125G G137U: 0.01; for A33G U127C A135G: 0.34. The value for A36U A51G A52G A62U A66G U131C was 0.14. With A33G U132C G137A, the self-cleavage was 0.32. For the variant A36G C107U A114G A129G, the self-cleavage came out at 0.

Consider A36U A64G A135U, for which the self-cleavage was determined as 2.04. The same measure for A33C C42A A60G: 0.35; for A33G A95G U120C U130C: 0.45; for A33G U49A U108A A135G: 0.02. The value for A33G A67U A118G was 0.7; that for A36U A47G A52G A92C A94G U120C U122C was 0.42. The value for A33G A117G U124C was 0.4. For the variant A33G A52G A63G, the self-cleavage was 1.1. The same measure for A33G A90G A114U U120C: 0.04.

As for A33G G123U A140G, the self-cleavage was 0.75.

In the case of A36U C40U A55G U120A A126G, the self-cleavage came to 0.28. The value for A36G A59G A68G U70C G115A was 0.03. The value for A36G G58A G79A A89U A118G was 0.19. The value for A36U A64G A68G was 1.87. As for A33G A111G U124C, the self-cleavage was found to be 0.02. The value for C34U A51G A78C A96U A129G was 0.13; that for A33G A36U U49C A56G A67G A116C U132C was 0.02. The same measure for A36G A55G A95G U103C: 1.43; for A36G U70A C128U: 0.33.
